Assay results published in PubChem BioAssay AID686979 (National Center for Advancing Translational Sciences (NCATS), 2013).
The whole screen tested about 420,000 compounds, of which about 50,000 (12%) were called active. This list was built around the results that the source calls inconclusive (neither active nor inactive); the mix of calls is not that of the screen. The call rests on the fitted dose curve; in most records, active means well fitted inhibition curve with a large enough effect; inconclusive means small, poorly fitted or top-dose-only effect; inactive means flat fitted curve, though single readings scatter. Potencies of inconclusive entries are left out as doubtful fits.

assay: qHTS for Inhibitors of human tyrosyl-DNA phosphodiesterase 1 (TDP1): qHTS in cells in presence of CPT; conditions: chicken DT40 Tdp1-/-;hTDP1 cells + 20 nM CPT, ATP luminescence, 48 h; activity change, negative = growth inhibition: at 46.2 µM (top of the series) unless noted; further: nearly all actives have a fitted effect of over 55% in size
Procedure, shortened: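 Cell growth measured by CellTiter-Glo luminescence after a minimum 48 h, 37 C compound exposure with 20 nM CPT in Tdp1-knockout DT40 cells stably expressing hTDP1, seeded 400/well; qHTS titration format.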
On the % scale 0 is the no-effect control and ±100 the full control effect; potency means the concentration at half of the fitted maximal effect; tags describe the fitted curve by direction and shape.

Which Potency does the source give for `COc1cccc(NC(=O)CSc2nc3c(sc4ccccc43)c(=O)n2CCN(C)C)c1` here?
The Potency was active: 14.6 µM.

With `COc1ccccc1NC(=O)CN1CCC(n2c(C)nc3cc(F)ccc32)CC1` as the compound, how does the Potency read?
Its Potency is inconclusive [inhibitor, single point].

Which Potency does the source give for `CC1(C(=O)NCc2ccco2)Cc2c(-c3ccc4c(c3)OCO4)ccnc2O1` (stereo unspecified) here?
Its Potency is active: 0.82 µM.

Which “activity change, negative = growth inhibition” value does the source give for `CCCS(=O)(=O)N1CCCC(C(=O)NCCCN(C)c2ccccc2)C1` (stereo unspecified) here?
Its value is inactive: -1.36%.

For `CSc1nc(Cl)c(Cc2ccc(OCC(C)C)cc2)c(N2CCOCC2)n1`, which Potency is on record?
Its Potency is inconclusive [inhibitor, single point].

Which Potency does the source give for `N#C/C(=N\Nc1ccc(F)cc1)C(=O)C1CC1` here?
Its Potency is inconclusive [inhibitor, single point].

For `CN1c2ccsc2C(O)=C(C(=S)Nc2ccc(F)c(Cl)c2)S1(=O)=O`, which Potency is on record?
Its Potency is inconclusive [inhibitor, single point].

Which Potency does the source give for `COc1ccccc1-c1ccc2ncnc(NCCN3CCOCC3)c2c1` here?
The Potency was inconclusive [inhibitor, single point].

With `O=C(N/N=C/c1cc2c(cc1Cl)OCO2)c1ccc2c(c1)OCCO2` as the compound, how does the “activity change, negative = growth inhibition” value read?
Its value is inactive: -5.09%.

Which Potency does the source give for `CCc1nnc(NC(=O)c2nc(S(=O)(=O)Cc3ccccc3)ncc2Cl)s1` here?
The Potency was active: 18.4 µM.

With `CNC[C@H](CC1CCCCC1)NC[C@H](NCCC1CCCC1)[C@H](C)O` as the compound, how does the Potency read?
Its Potency is active: 16.4 µM.

With `COc1cccc(NC(=O)CCC2CCN(C(=O)Cc3cccc(F)c3)CC2)c1` as the compound, how does the Potency read?
The Potency was inconclusive [inhibitor, single point].

With `Cc1cccc(C)c1NC(=O)c1sc(Cl)nc1C` as the compound, how does the “activity change, negative = growth inhibition” value read?
Its value is inactive: -18.9%.

With `C[N+]1(CC(=O)c2ccc(O)c(O)c2)CCOCC1` as the compound, how does the Potency read?
Its Potency is inconclusive [inhibitor, partial curve, poor fit].

For `CC(Sc1nnc(Cn2c(=O)sc3ccccc32)n1C)c1ccccc1` (stereo unspecified), which Potency is on record?
Its Potency is inconclusive [inhibitor, single point].

Which “activity change, negative = growth inhibition” value does the source give for `O=c1oc2ccc3ccccc3c2cc1-c1nnc(Nc2ccccc2)s1` here?
The value was inactive: -1.15%.

For `COc1cccc(Cn2c(NCC(C)C)nc3c2c(=O)n(C)c(=O)n3C)c1`, which Potency is on record?
Its Potency is active: 29.1 µM.

With `CCCNC(=O)C1(C)CCCN(Cc2ccccc2-c2ccccc2)C1` (stereo unspecified) as the compound, how does the Potency read?
The Potency was inconclusive [inhibitor, single point].

Which Potency does the source give for `CC(C)Oc1cccc(C(=O)C2CCCN(C(=O)c3ccnn3C)C2)c1` (stereo unspecified) here?
The Potency was inconclusive [inhibitor, single point].

For `CNc1nc(N)c([N+](=O)[O-])c(NCC2CCCO2)n1` (stereo unspecified), which Potency is on record?
The Potency was inconclusive [inhibitor, single point].

For `CC(C)C1C(c2ccccc2)NC(c2ccccc2)CC1(O)c1ccc(F)cc1` (stereo unspecified), which Potency is on record?
Its Potency is inconclusive [inhibitor, single point].

Which Potency does the source give for `CCc1cccc(NC(=O)Cn2nc(CC)n3c(cc4cc(C)ccc43)c2=O)c1` here?
The Potency was inconclusive [inhibitor, single point].

Which Potency does the source give for `COc1ccc(NS(=O)(=O)c2cc(NC(=O)c3ccc(=O)[nH]n3)ccc2C)cc1` here?
Its Potency is active: 18.4 µM.

Which Potency does the source give for `CCn1c(SCc2nc3ccccc3nc2C)nnc1-c1cccs1` here?
Its Potency is inconclusive [inhibitor, partial curve].

Which Potency does the source give for `Cc1ccc(-c2c[n+]3c(n2-c2ccccc2)CCC3)cc1` here?
Its Potency is active: 1.16 µM.

Which Potency does the source give for `CC(=O)NCCNc1nc(NC(C)C)nc2cc(-c3ccccc3)sc12` here?
Its Potency is active: 23.1 µM.

Which “activity change, negative = growth inhibition” value does the source give for `CC1CCN(S(=O)(=O)c2ccc(S(=O)(=O)NCC3COCCO3)cc2)CC1` (stereo unspecified) here?
The value was inactive: -4.04%.

Which Potency does the source give for `CN1CCC(N(C)C(=S)Nc2ccc(SC(F)F)cc2)CC1` here?
Its Potency is inconclusive [inhibitor, single point].

Which “activity change, negative = growth inhibition” value does the source give for `CC(C)(C)OC(=O)C[C@@H]1C/C=C\C[C@H](CC(=O)NCCO)C(=O)N2CCC[C@H]2COC1=O` here?
The value was inactive: -10.6%.

For `CC12CCC(=O)N1C(C(=O)NCCN1C(=O)S/C(=C\c3ccc(OC(F)F)cc3)C1=O)CS2` (stereo unspecified), which Potency is on record?
Its Potency is inconclusive [inhibitor, single point].

With `CCOC(=O)[C@H]1[C@H]2COc3ccc(OC)cc3[C@@H]2N2C(=O)CN(Cc3ccco3)C(=O)[C@@]12C` as the compound, how does the Potency read?
Its Potency is inconclusive [inhibitor, single point].

With `COc1ccc(C(=O)N2CCC3(CCCN(Cc4cc(C(F)(F)F)cc(C(F)(F)F)c4)C3)CC2)cc1` as the compound, how does the Potency read?
Its Potency is active: 20.6 µM.

For `NC(=O)c1c(/N=C/c2cccs2)sc2c1CCCC2`, which Potency is on record?
The Potency was active: 3.66 µM.

For `Cc1nc2c3ccccc3nc(SCC(=O)N3CC(C)CC(C)C3)n2n1` (stereo unspecified), which activity change, negative = growth inhibition is on record?
The activity change, negative = growth inhibition was inconclusive: -34.9% [inhibitor].

Which Potency does the source give for `CCC(=O)Nc1cc(C(=O)NCc2ccc(C)cc2)ccc1S(=O)(=O)c1ccc(C)cc1` here?
The Potency was inconclusive [inhibitor, single point].

For `CC(OC(=O)c1ccc(Br)o1)C(=O)NCC1CCCCC1` (stereo unspecified), which “activity change, negative = growth inhibition” value is on record?
The value was inactive: 6.72%.

Which “activity change, negative = growth inhibition” value does the source give for `CC(=O)NS(=O)(=O)c1ccc(N2C(=O)CC(Sc3nccc(C)n3)C2=O)cc1` (stereo unspecified) here?
Its value is inactive: -8.06%.

For `O=C(NCC1COc2ccccc2O1)c1ccc(Cl)cc1` (stereo unspecified), which Potency is on record?
The Potency was inconclusive [inhibitor, single point].

Which Potency does the source give for `c1ccc(-c2ccc(N3CC[C@@]4(CCCNC4)C3)cc2)cc1` here?
Its Potency is active: 18.4 µM.

With `CCC(=O)c1cc(F)c(N2CCN(C(=O)c3ccco3)CC2)cc1C` as the compound, how does the Potency read?
Its Potency is inconclusive [inhibitor, single point].

For `C[C@@H](OC(=O)c1[nH]cnc1C(=O)N1CCc2ccccc2C1)c1ccccc1`, which Potency is on record?
Its Potency is inconclusive [inhibitor, single point].

Which “activity change, negative = growth inhibition” value does the source give for `NCCC1CCCC(CCN)N1` (stereo unspecified) here?
The value was inactive: -6.61%.

For `O=C(Nc1ccccc1N1CCN(C(=O)c2ccc(Cl)cc2)CC1)c1cc2ccccc2o1`, which Potency is on record?
Its Potency is active: 25.9 µM.

For `COc1cccc(OCC(=O)NNC(=O)c2ccc3ccccc3c2O)c1`, which activity change, negative = growth inhibition is on record?
The activity change, negative = growth inhibition was inconclusive: -30.1% [inhibitor].

With `CCc1ccc2[nH]c(=O)c(CN(CCN(C)C)C(=O)Nc3ccccc3)cc2c1` as the compound, how does the Potency read?
Its Potency is inconclusive [inhibitor, single point].

Which “activity change, negative = growth inhibition” value does the source give for `OC1COCOC1C(O)C1OCOCC1O` (stereo unspecified) here?
Its value is inactive: 0.902%.

With `Cc1ccc(-n2ncc(C(=O)Nc3cc(Cl)ccc3C)c2C2CCNCC2)cc1C` as the compound, how does the Potency read?
The Potency was active: 16.4 µM.

Which Potency does the source give for `CCCC1O[C@@H]2C[C@H]3[C@@H]4CCC5=CC(=O)C=C[C@]5(C)[C@H]4[C@@H](O)C[C@]3(C)[C@]2(C(=O)CO)O1` (stereo partly specified) here?
Its Potency is “inactive”.

With `O=C(N/N=C/c1cccc([N+](=O)[O-])c1)C1COc2ccccc2O1` (stereo unspecified) as the compound, how does the “activity change, negative = growth inhibition” value read?
The value was inactive: 23.8%.

With `c1ccc(C2(CNc3ccccn3)CCCC2)cc1` as the compound, how does the Potency read?
Its Potency is inconclusive [inhibitor, single point].

For `Cc1cc(C)c2oc(C(=O)Nc3c(C(=O)c4ccc(F)cc4)oc4ccccc34)cc(=O)c2c1`, which “activity change, negative = growth inhibition” value is on record?
Its value is inactive: -8.54%.

Which Potency does the source give for `Cc1ccc(N(C(=O)c2snc(C(N)=O)c2N)C(CC(C)C)C(=O)NC2CCCC2)cc1` (stereo unspecified) here?
The Potency was inconclusive [inhibitor, partial curve].

With `Cc1cccc(OCc2ccc(-c3nc(C#N)c(N4CCN(c5ccccc5)CC4)o3)o2)c1` as the compound, how does the Potency read?
The Potency was inconclusive [inhibitor, single point].

For `Cn1cccc1/C=N/NC(N)=S`, which Potency is on record?
The Potency was inconclusive [inhibitor, single point].

With `Cn1c(NC(=O)c2ccccc2F)c(-c2cccs2)c(=O)c2ccccc21` as the compound, how does the Potency read?
Its Potency is inconclusive [inhibitor, single point].

Which Potency does the source give for `Cc1ccc(S(=O)(=O)N(CC(=O)NCCSC2CCCCC2)c2ccccc2F)cc1` here?
Its Potency is inconclusive [inhibitor, partial curve, poor fit].

With `COc1ccc2c(c1)c(=O)c(C(=O)c1ccccc1)cn2Cc1ccc(C)cc1` as the compound, how does the Potency read?
Its Potency is inconclusive [inhibitor, single point].

Which “activity change, negative = growth inhibition” value does the source give for `O=C(NCc1ccncc1)C1CCCN(S(=O)(=O)c2ccc(Br)cc2)C1` (stereo unspecified) here?
The value was inactive: -26%.

For `CC1CCC(NC(=O)C2(C)Cc3ccccc3C(=O)N2Cc2ccccc2Cl)CC1` (stereo unspecified), which Potency is on record?
Its Potency is inconclusive [inhibitor, single point].

With `CC(C)N1CCc2c(sc(N)c2C#N)C1` as the compound, how does the Potency read?
The Potency was inconclusive [inhibitor, single point].

With `O=C(NC1CCCCCC1)C(=S)NCCc1ccccc1` as the compound, how does the Potency read?
Its Potency is inconclusive [inhibitor, single point].

With `Cc1noc(NS(=O)(=O)c2ccc(N/C=C\C(=O)c3ccc(Br)cc3)cc2)c1C` as the compound, how does the “activity change, negative = growth inhibition” value read?
Its value is inactive: -11.5%.

For `Cc1ccc(/C=C/C(=O)c2c(C)nc3ccccn23)cc1`, which Potency is on record?
Its Potency is active: 16.4 µM.

Which Potency does the source give for `Cn1c2c(c(=O)n(C)c1=O)C(c1ccccc1Cl)CC(=O)N2` (stereo unspecified) here?
Its Potency is inconclusive [inhibitor, single point].

For `CN(Cc1ccccc1)c1nc2c(c(=O)[nH]c(=O)n2C)n1CCCSc1ncccn1`, which Potency is on record?
The Potency was inconclusive [inhibitor, partial curve].

Which Potency does the source give for `Cc1ccc2[nH]cc(CCCN3C(=O)c4ccccc4C3=O)c2c1` here?
Its Potency is inconclusive [inhibitor, single point].

For `O=C(CSc1ncnc2scc(-c3ccc(F)cc3)c12)c1ccc2c(c1)OCCO2`, which Potency is on record?
Its Potency is active: 20.6 µM.

With `O=C(CSc1nnnn1-c1ccc2c(c1)OCCO2)OC1CCCCC1` as the compound, how does the Potency read?
The Potency was inconclusive [inhibitor, single point].

For `COc1ccc(Cc2c(-c3ccccc3)nc3cc(C)c(Br)c(C)n23)c(C)c1`, which Potency is on record?
The Potency was inconclusive [inhibitor, partial curve].

For `CCN(CC)c1ccc(NC(=O)Cn2c(C)c3cnn(-c4ccccc4)c(=O)c3c2C)c(C)c1`, which activity change, negative = growth inhibition is on record?
Its activity change, negative = growth inhibition is inconclusive: -32.4% [inhibitor].

For `CCOCCCNC(=O)c1cc2sc(Cl)cc2n1CC`, which Potency is on record?
Its Potency is inconclusive [inhibitor, partial curve, poor fit].
